Measured values reported in PubChem BioAssay (Tox21).
Values joined by “and” are separate entries in the source; they are usually repeats but may differ in a detail not shown here. Equal values may be shown once. Inconclusive means that the source gave no clear call. Such entries were picked first, then a sample of the others. For some of these results: A potency beside an inconclusive call is a rough fit, not a confirmed value. A structure can be active in one record and inactive in another. Active and inactive are the calls of the source. Unless noted, calls follow the shape of the dose curve; as a rule, active = well fitted curve in the direction sought with a large enough effect in the repeat runs; inconclusive = weak or mixed curves; inactive = no such curve, though single readings can be large; an effect the other way counts as inactive or inconclusive.

How the values were obtained:
[1] = molecular target: Androgen receptor (Homo sapiens) (UniProt P10275); experiment: qHTS assay to identify small molecule antagonists of the androgen receptor (AR) signaling pathway (AID 743035; active = well fitted inhibition curve with a large enough effect in the signal ratio in the repeat runs, not every such curve was filed as active; inconclusive = weak or mixed curves, or effect the other way; inactive = no such curve, though single readings can be large or run the other way; the % refers to the signal ratio; also: % is scaled to controls: 0 for no effect and ±100 for the full control effect); conditions: HEK293 AR-UAS-bla, R1881-stimulated, beta-lactamase FRET, 16 h
Summary of the method: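 In this cell-based reporter screen, compounds were tested in concentration series against R1881-activated HEK293 cells expressing beta-lactamase under UAS control; after 16 h at 37C, FRET substrate was added and fluorescence read 2 h later.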

[2] = qHTS assay to identify small molecule antagonists of the androgen receptor (AR) signaling pathway - cell viability counter screen (AID 743033; also: potency is read from the fitted curve at half-maximal effect; nearly all actives have a fitted effect of over 45% in size); conditions: AR-bla HEK293 viability, CellTiter-Glo luminescence, 16 h; activity change, negative = cytotoxicity: at 58.5 µM (top of the series) unless noted
[3] = qHTS assay to identify small molecule antagonists of the androgen receptor (AR) signaling pathway using the MDA cell line - cell viability counter screen (AID 743041; also: potency is read from the fitted curve at half-maximal effect; nearly all actives have a fitted effect of over 45% in size); conditions: MDA-kb2 viability, CellTiter-Fluor, 16 h, cells co-treated with R1881 androgen agonist; viability change, negative = cytotoxic: at 70.3 µM (top of the series) unless noted
Summary of the method: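 Using the breast carcinoma line MDA-kb2 AR-luc, test chemicals were co-incubated with R1881 for 16 h; CellTiter-Fluor reagent, added at 15.5 h, provided a fluorescence measure of live cells.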

[4] = qHTS assay to identify small molecule antagonists of the thyroid receptor (TR) signaling pathway (AID 743065); conditions: GH3.TRE-Luc, T3-stimulated luciferase inhibition, 23.5 h; series mostly up to 70.3 µM; also: potency is read from the fitted curve at half-maximal effect; nearly all actives have a fitted effect of over 55% in size
Summary of the method: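 Antagonism measured as loss of luciferase signal in GH3 cells stably carrying a TRE-luciferase reporter, co-treated with compound and T3 (1 nM final) for 23.5 h at 37 C. Viability was read in the same well by CellTiter-Fluor.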

[5] = test system: thyroid hormone receptor (rat, GH3 cells); experiment: qHTS assay to identify small molecule agonists of the thyroid receptor (TR) signaling pathway (AID 743066; calls by dose curve; also: potency is read from the fitted curve at half-maximal effect; as to activation: % is scaled to controls: 0 for no effect and ±100 for the full control effect); conditions: GH3.TRE-Luc cells, TR agonist luciferase, 24 h; activation: at 83.9 µM (top of the series) unless noted
[6] = qHTS assay to identify aromatase inhibitors - cell viability counter screen (AID 743084); conditions: MCF-7 aro ERE viability, CellTiter-Fluor, 24 h; activity change, negative = cytotoxicity: at 70.3 µM (top of the series) unless noted;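 also: cells stimulated with testosterone during compound exposure; potency is read from the fitted curve at half-maximal effect; nearly all actives have a fitted effect of over 55% in size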
[7] = qHTS assay to identify small molecule antagonists of the thyroid receptor (TR) signaling pathway - cell viability counter screen (AID 743064); conditions: GH3.TRE-Luc viability, CellTiter-Fluor, 24 h; activity change, negative = cytotoxic: at 70.3 µM (top of the series) unless noted; also: potency is read from the fitted curve at half-maximal effect; nearly all actives have a fitted effect of over 50% in size
Summary of the method: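 GH3.TRE-Luc rat pituitary cells dosed after 4 hr plating, co-stimulated with T3 at 1 nM final, incubated 23.5 h at 37 C. Viability measured in the same wells by CellTiter-Fluor fluorescence after 30 min further at 37 C.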

[8] = molecular target: Estrogen receptor (Homo sapiens) (UniProt P03372); experiment: qHTS assay to identify small molecule antagonists of the estrogen receptor alpha (ER-alpha) signaling pathway (AID 743069; active = well fitted curve in the direction sought with a large enough effect in the signal ratio in the repeat runs, not every such curve was filed as active; inconclusive = weak or mixed curves, or effect the other way; inactive = no such curve, though single readings can be large or run the other way; the % refers to the signal ratio; also: potency is read from the fitted curve at half-maximal effect); conditions: HEK293 ER-alpha-UAS-bla, beta-lactamase ratio, antagonist mode; activity, negative = inhibition: at 69.4 µM (top of the series) unless noted
Summary of the method: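 Fluorescence intensity from a beta-lactamase FRET substrate served as the read-out. Cells: HEK293 with stably integrated ER-alpha-UAS-bla reporter. Agonist 17beta-estradiol was co-added with compounds; incubation 18 hr at 37C, substrate 2 hr at room temperature.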

[9] = qHTS assay to identify small molecule antagonists of the estrogen receptor alpha (ER-alpha) signaling pathway - cell viability counter screen (AID 743074; calls by dose curve; also: nearly all actives have a fitted effect of over 45% in size; also: potency is read from the fitted curve at half-maximal effect); conditions: ERalpha-bla HEK293 viability, CellTiter-Glo luminescence, 18 h; series mostly up to 69.4 µM
[10] = molecular target: Estrogen receptor (Homo sapiens) (UniProt P03372); experiment: qHTS assay to identify small molecule agonists of the estrogen receptor alpha (ER-alpha) signaling pathway (AID 743075; calls by dose curve; also: potency is read from the fitted curve at half-maximal effect); conditions: HEK293 ER-alpha-UAS-bla, beta-lactamase FRET ratio, 18 h; series mostly up to 70.1 µM
[11] = molecular target: Estrogen receptor (Homo sapiens) (UniProt P03372); experiment: qHTS assay to identify small molecule agonists of the estrogen receptor alpha (ER-alpha) signaling pathway using the BG1 cell line (AID 743079); conditions: BG1Luc4E2 cells, ERE-luciferase agonist, 22 h; activation: at 70.3 µM (top of the series) unless noted; also: potency is read from the fitted curve at half-maximal effect; nearly all actives have a fitted effect of over 20% in size
[12] = qHTS assay to identify small molecule antagonists of the estrogen receptor alpha (ER-alpha) signaling pathway using the BG1 cell line (AID 743080; calls by dose curve;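 also: BG1 cells stimulated with 17beta-estradiol alongside compound; potency is read from the fitted curve at half-maximal effect; nearly all actives have a fitted effect of over 25% in size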); conditions: BG1Luc4E2 ERE-luciferase antagonist mode, luminescence; activity change, negative = inhibition: at 70.3 µM (top of the series) unless noted
Summary of the method: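 Luciferase inhibition measured with ONE-Glo after 30 min at RT in BG1Luc4E2 cells given test compounds and 17beta-estradiol for 21.5 h at 37 C; CellTiter-Fluor viability read in the same wells beforehand.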

[13] = molecular target: Peroxisome proliferator-activated receptor gamma (Homo sapiens) (UniProt P37231); experiment: qHTS assay to identify small molecule agonists of the peroxisome proliferator-activated receptor gamma (PPARg) signaling pathway (AID 743094; active = well fitted activation curve with a large enough effect in the signal ratio in the repeat runs, not every such curve was filed as active; inconclusive = weak or mixed curves, or effect the other way; inactive = no such curve, though single readings can be large or run the other way; the % refers to the signal ratio; also: potency is read from the fitted curve at half-maximal effect; as to activation: % is scaled to controls: 0 for no effect and ±100 for the full control effect); conditions: HEK293H PPARg-UAS-bla, beta-lactamase FRET ratio, 17 h; activation: at 57 µM (top of the series) unless noted
Summary of the method: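 Cell-based bla reporter, HEK293H background, PPARg-driven UAS. Pre-incubation 5 h, 37C, 5% CO2. Compound 17 h, 37C. Substrate 1 h RT; fluorescence.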

[14] = qHTS assay to identify small molecule antagonists of the estrogen receptor alpha (ER-alpha) signaling pathway using the BG1 cell line - cell viability counter screen (AID 743081); conditions: BG1Luc4E2 viability, CellTiter-Fluor, 22 h; activity change, negative = cytotoxicity: at 70.3 µM (top of the series);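 also: compound given together with 17beta-estradiol as the ER stimulus; potency is read from the fitted curve at half-maximal effect; nearly all actives have a fitted effect of over 45% in size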
Tags tell the direction and shape of the fitted curve or compound fluorescence and quenching.

UniProt P37231, sequence (P37231 whole entry, looked up): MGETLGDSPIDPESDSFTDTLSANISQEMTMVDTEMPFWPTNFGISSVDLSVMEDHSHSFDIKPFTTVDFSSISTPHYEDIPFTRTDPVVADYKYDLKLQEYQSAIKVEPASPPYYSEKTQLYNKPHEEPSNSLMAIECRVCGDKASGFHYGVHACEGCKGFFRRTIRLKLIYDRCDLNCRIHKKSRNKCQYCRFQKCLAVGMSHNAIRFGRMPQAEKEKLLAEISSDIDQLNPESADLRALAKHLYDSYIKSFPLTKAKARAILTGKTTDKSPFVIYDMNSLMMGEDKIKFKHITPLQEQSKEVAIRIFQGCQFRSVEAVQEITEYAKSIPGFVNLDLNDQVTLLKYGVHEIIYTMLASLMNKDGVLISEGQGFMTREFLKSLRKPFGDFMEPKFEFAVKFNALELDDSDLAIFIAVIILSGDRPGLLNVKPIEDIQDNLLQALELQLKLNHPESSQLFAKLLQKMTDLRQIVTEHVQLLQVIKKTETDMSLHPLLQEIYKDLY
UniProt P10275, sequence (P10275 whole entry, looked up): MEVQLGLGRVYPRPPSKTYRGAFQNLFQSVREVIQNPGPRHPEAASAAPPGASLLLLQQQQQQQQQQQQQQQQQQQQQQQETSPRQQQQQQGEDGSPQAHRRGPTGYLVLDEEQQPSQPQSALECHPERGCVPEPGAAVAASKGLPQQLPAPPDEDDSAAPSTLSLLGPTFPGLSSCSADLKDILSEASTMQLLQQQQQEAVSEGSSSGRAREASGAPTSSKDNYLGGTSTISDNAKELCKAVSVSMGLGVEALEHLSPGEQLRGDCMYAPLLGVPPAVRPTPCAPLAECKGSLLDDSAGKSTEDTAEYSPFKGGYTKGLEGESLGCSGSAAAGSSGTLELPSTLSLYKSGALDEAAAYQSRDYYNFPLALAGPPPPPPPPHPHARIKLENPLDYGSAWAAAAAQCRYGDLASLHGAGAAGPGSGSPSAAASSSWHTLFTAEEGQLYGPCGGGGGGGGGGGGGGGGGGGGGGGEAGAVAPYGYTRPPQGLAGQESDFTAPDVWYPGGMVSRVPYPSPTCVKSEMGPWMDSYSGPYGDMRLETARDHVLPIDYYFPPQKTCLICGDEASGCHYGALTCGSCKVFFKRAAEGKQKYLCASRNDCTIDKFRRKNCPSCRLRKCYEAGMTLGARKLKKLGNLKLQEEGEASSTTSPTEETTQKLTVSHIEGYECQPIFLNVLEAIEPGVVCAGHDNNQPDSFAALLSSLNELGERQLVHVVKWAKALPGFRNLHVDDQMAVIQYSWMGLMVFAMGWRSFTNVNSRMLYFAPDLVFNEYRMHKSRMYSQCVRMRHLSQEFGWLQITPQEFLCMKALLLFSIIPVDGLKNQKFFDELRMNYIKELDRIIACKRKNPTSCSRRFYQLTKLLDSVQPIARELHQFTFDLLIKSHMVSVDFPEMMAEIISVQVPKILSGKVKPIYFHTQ
UniProt P03372, sequence (P03372 whole entry, looked up): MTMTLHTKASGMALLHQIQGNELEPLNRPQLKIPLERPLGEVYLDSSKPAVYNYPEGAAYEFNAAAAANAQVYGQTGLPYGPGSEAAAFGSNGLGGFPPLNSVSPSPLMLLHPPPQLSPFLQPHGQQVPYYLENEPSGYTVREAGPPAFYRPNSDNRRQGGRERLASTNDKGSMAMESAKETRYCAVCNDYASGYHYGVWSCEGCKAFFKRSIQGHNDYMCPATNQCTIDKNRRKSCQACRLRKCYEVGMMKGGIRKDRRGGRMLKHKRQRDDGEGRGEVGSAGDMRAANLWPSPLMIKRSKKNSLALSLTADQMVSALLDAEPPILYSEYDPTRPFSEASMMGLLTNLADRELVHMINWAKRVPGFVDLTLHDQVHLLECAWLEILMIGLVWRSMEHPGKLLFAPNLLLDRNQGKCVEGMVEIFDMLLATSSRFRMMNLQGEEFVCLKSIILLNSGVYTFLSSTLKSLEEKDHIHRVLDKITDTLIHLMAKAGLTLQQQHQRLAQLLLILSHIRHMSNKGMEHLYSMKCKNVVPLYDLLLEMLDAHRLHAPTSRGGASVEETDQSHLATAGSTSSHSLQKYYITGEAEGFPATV

Question: For `CCN(CC)C(=O)/C(Cl)=C(\C)OP(=O)(OC)OC`, which activity change, negative = inhibition ([1]; at 58.5 µM (top of the series)) is on record?
Answer: inconclusive: -32.8%

Question: And the activity change, negative = inhibition ([1]; at 78.9 µM (top of the series))?
Answer: inconclusive: -25.9%

Question: What does the source list for `CCNc1nc(NC(C)C)nc(SC)n1`?
Answer: activity change, negative = inhibition ([1]; at 58.5 µM (top of the series)): inconclusive: -38.5%; activity change, negative = inhibition ([1]; at 78.9 µM (top of the series)): inconclusive: -12.9%

Question: What does the source list for `CCOC(=S)S`?
Answer: Potency [2]: active: 13.8 µM and active: 8.26 µM; Potency [3]: inconclusive: 68.6 µM [cytotoxic, single point] and inconclusive: 81.9 µM [cytotoxic, single point]; Potency [4]: inconclusive: 68.6 µM [inhibitor, partial curve, poor fit]; Potency [5]: inactive; Potency [6]: inconclusive: 68.6 µM [cytotoxic, single point] and inconclusive: 58 µM [cytotoxic, partial curve]

Question: Which Potency [2] does the source give for `C[C@]12CCC(=O)C=C1CC[C@@H]1[C@@H]2CC[C@]2(C)C(=O)CC[C@@H]12` here?
Answer: inconclusive: 38.3 µM [cytotoxic, partial curve] and inconclusive: 54.9 µM [cytotoxic, single point]

Question: And the Potency [7]?
Answer: inconclusive: 26.8 µM [rising, single point]

Question: What about the Potency [4] of the same compound?
Answer: inconclusive: 11.9 µM [inhibitor, partial curve, poor fit] and inconclusive: 27.3 µM [inhibitor, partial curve]

Question: And the Potency [8]?
Answer: inconclusive: 16.9 µM [activator, partial curve] and inconclusive: 54 µM [fluorescent, partial curve] and inconclusive: 30.9 µM [fluorescent]

Question: And the Potency [9]?
Answer: inactive and inconclusive: 48.2 µM [cytotoxic, partial curve, poor fit]

Question: And the Potency [10]?
Answer: inconclusive: 21.3 µM [activator, partial curve]

Question: What about the Potency [11] of the same compound?
Answer: active: 1.5 µM and active: 4.25 µM and active: 4.33 µM

Question: And the Potency [12]?
Answer: inconclusive: 23.7 nM [rising, full curve, poor fit] and inconclusive: 21.7 nM [rising, full curve, poor fit]

Question: What about the Potency [13] of the same compound?
Answer: inconclusive: 54 µM [fluorescent, single point]

Question: And the activation [13]?
Answer: inconclusive: -1.02%

Question: Which Potency [2] does the source give for `CCCCCCCCCCCCCC[P+](CCCCCC)(CCCCCC)CCCCCC` (tested in a mixture with another compound) here?
Answer: active: 1.95 µM

Question: What about the Potency [3] of the same compound?
Answer: active: 4.33 µM

Question: What about the Potency [5] of the same compound?
Answer: inconclusive: 1.37 µM [inhibitor, partial curve, poor fit]

Question: And the Potency [9]?
Answer: active: 7.76 µM

Question: And the Potency [10]?
Answer: inconclusive: 15.5 µM [cytotoxic]

Question: And the Potency [11]?
Answer: inconclusive: 2.17 µM [inhibitor, full curve]

Question: What about the Potency [12] of the same compound?
Answer: active: 2.73 µM

Question: What about the Potency [14] of the same compound?
Answer: active: 9.69 µM

Question: What about the Potency [13] of the same compound?
Answer: inconclusive: 24.6 µM [cytotoxic, full curve]
